# Test results reported in publication PMC4336329 (PLoS ONE, 2015).
# The whole screen tested about 310,000 compounds, of which about 14,000 (4.5%) showed an effect of 50% or more. Effects have a minus sign here. The list shows a part of the results.
# Target: human ether-à-go-go-related gene (hERG) potassium channel (human, UniProt Q12809)
# Assay: primary screen, population patch clamp on CHO cells stably expressing hERG
# 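Further: peak tail current of the secondary pulse compared with the same well before compound.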
# Chain of human ether-à-go-go-related gene (hERG) potassium channel (Q12809 whole entry, looked up): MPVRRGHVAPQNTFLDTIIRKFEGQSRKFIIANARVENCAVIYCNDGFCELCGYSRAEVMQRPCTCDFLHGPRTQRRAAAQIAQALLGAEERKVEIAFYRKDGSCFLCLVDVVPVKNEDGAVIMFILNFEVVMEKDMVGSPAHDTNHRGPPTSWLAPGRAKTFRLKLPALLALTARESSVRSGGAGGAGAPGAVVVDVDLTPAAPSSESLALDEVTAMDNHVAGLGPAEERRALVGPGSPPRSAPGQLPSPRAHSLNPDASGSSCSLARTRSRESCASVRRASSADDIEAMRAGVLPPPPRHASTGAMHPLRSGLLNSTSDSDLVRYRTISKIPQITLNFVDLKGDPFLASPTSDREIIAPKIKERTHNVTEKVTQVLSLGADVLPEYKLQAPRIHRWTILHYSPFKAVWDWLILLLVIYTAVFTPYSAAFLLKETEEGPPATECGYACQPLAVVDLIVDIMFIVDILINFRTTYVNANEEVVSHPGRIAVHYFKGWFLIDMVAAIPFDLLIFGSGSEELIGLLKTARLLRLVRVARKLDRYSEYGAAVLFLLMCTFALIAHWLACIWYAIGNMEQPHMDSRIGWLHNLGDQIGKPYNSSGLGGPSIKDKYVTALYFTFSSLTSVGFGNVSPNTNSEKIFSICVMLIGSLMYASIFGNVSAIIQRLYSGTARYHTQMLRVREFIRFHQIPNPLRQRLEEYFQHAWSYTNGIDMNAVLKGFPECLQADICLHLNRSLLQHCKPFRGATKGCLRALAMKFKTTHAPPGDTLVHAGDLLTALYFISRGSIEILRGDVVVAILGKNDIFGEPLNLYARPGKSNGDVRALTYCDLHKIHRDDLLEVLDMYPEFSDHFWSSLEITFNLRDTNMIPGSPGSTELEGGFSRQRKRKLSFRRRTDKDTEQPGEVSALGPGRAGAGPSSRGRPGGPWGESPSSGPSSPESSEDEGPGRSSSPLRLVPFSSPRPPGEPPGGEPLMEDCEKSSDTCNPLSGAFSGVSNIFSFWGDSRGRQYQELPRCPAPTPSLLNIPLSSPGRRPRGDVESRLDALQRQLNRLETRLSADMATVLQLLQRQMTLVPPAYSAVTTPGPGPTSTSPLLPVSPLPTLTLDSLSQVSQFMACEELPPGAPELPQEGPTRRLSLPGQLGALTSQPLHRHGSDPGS
row,Structure (SMILES),"hERG current change (%, negative = inhibition) at 10uM [%]"
1,O=C1c2ccccc2C2(c3cc(C(F)(F)F)cc(C(F)(F)F)c3)NCCN12 (stereo not shown),-0.536
2,O=C(CCN1C(=O)c2ccccc2S1(=O)=O)Nc1ccc2c(c1)OCCO2,17.2
3,CCOc1ccc(S(=O)(=O)NCCCn2ccnc2)cc1NC(C)=O,-14.4
4,O=C(CCC(=O)OCC(F)(F)C(F)F)Nc1ccc(Cl)cc1,-9.24
5,CC(C)(C)C(=O)c1cn(CC(=O)O)c2ccccc12,9.17
6,O=C(NCCc1ccccc1)C1CCN(C(=O)c2ccc([N+](=O)[O-])cc2)CC1,-63.2
7,COC(=O)c1cc(NC(=O)c2cc(C(C)(C)C)nn2Cc2cccc(C)c2)ccc1N1CCOCC1,15
8,COc1ccc(C(CNC(=O)c2oc3ccc(F)cc3c2C)N2CCCCC2)cc1 (stereo not shown),-59.9
9,N/C(=N\OC(=O)Cc1ccc(-c2ccccc2)cc1)c1cccc([N+](=O)[O-])c1,13.6
10,CNC(=O)CSc1nc2cccnc2n1-c1ccc(F)cc1,11.1
11,CC(C)C(C(=O)C=[N+]=[N-])N1C(=O)c2ccccc2C1=O (stereo not shown),5.77
12,CCC12CN(C(=O)c3ccc([N+](=O)[O-])cc3)CC(CC)(CN(C(=O)c3ccc([N+](=O)[O-])cc3)C1)C2=O,-16.6
13,Cc1cccc(C)c1NC(=O)CNC(=O)CCC(=O)N1CCOCC1,11.6
14,O=C(NCCS(=O)(=O)NCC1CCCO1)c1ccccc1 (stereo not shown),14.3
15,CCOc1ccc(NC(=O)CSc2ccc3nnc(-c4ccccn4)n3n2)cc1,-54.3
16,O=C(Cc1ccccc1)NS(=O)(=O)c1ccc(N=NN2CCOCC2)cc1,24.3
17,CS(=O)(=O)c1cnc(-c2ccccc2)nc1Oc1ccc(F)cc1,9.61
18,OCCNc1nc(OCC(F)(F)F)nc(N2CCN(C34CC5CC(CC(C5)C3)C4)CC2)n1,-37.9
19,O=C(COC(=O)c1ccco1)c1ccc(Cl)cc1,20.7
20,CC(Sc1nc(-c2ccccc2)cc(C(F)(F)F)n1)C(=O)N1CCCC1 (stereo not shown),1.76
21,CC(=O)c1ccc(-n2c(-c3cc(-c4ccco4)[nH]n3)n[nH]c2=S)cc1,13.5
22,CCOP(=O)(OCC)C(NS(=O)(=O)c1ccccc1)C(Cl)(Cl)Cl (stereo not shown),11.9

row,Structure (SMILES),"hERG current change (%, negative = inhibition) at 10uM [%]"
1,N#Cc1c(N)n(-c2ccc(O)cc2)c2nc3ccccc3nc12,8.96
2,O=C(Nc1ccccc1)Nc1nnc(Cc2ccccc2F)s1,-12.2
3,Cc1cc([N+](=O)[O-])ccc1NC(=O)C(C)N1CCN(c2ccccn2)CC1 (stereo not shown),-71.4
4,COC(=O)C1=CO[C@@H](O[C@@H]2OC(CO)[C@@H](O)[C@@H](O)[C@@H]2O)C2C1CC[C@]2(C)O (stereo partly shown),-0.251
5,CCC(=O)N=c1sc2cc([N+](=O)[O-])ccc2n1CCOC,2.71
6,CCOC(=O)C(C)Sc1nc2c([nH]c3ccccc32)c(=O)n1C (stereo not shown),-6.19
7,NC(=O)/C(=C/c1ccco1)NC(=O)c1ccc(Br)o1,1.02
8,COc1ccc(CNC(=S)Nc2cccc(C)c2)cc1,2.63
9,COc1ccc(C(=O)Cn2nnc(-c3ccccc3NC(=O)C3CC3)n2)cc1,7.46
10,O=S1(=O)CC(O)C(NCc2ccco2)C1 (stereo not shown),-1.57
11,CCOc1ccc(CN2CCCC(CO)(Cc3ccccc3F)C2)cc1 (stereo not shown),-64.8
12,COc1ccccc1CNC(=O)CN(C)CC(=O)Nc1cccc(F)c1,4.16
13,Cc1cccc(CC(=O)N2CCC(n3nccc3NC(=O)C3CC3)CC2)c1,15.3
14,COC(=O)c1sc2nc(C)nc(SCC(=O)N3CCC(C(=O)O)CC3)c2c1C,36.5
15,COc1ccc(Nc2cc(C(=O)NCCCN3CCN(C)CC3)c3ccccc3n2)cc1,2.72
16,OCCC1CN(Cc2ccccc2O)CCN1CCCc1ccccc1 (stereo not shown),-74.8
17,CCCCN(CC)S(=O)(=O)c1ccc(C(=O)N(CCCN(C)C)c2nc3cc(C)cc(C)c3s2)cc1.Cl,-73
18,Cc1nn(CC#N)c(=O)n1-c1ccccc1F,10.8
19,CC(C)(C)c1ccc(OCCC(=O)Nc2cccc(S(=O)(=O)N3CCCC3)c2)cc1,3.88
20,O=C(CC1(O)C(=O)Nc2ccccc21)c1ccccc1 (stereo not shown),9.95
21,Cc1ccc(N(C(=O)C2CCCC2)C2C=CS(=O)(=O)C2)cc1C (stereo not shown),4.85
22,COc1ccc(N(C(=O)c2cccc(OC)c2OC)C2C=CS(=O)(=O)C2)c(OC)c1 (stereo not shown),-4.96

row,Structure (SMILES),"hERG current change (%, negative = inhibition) at 10uM [%]"
1,CCOC(=O)c1nnn(-c2nonc2N)c1-c1ccccc1,-3.78
2,CC1(C)CCC/C(=C\c2ccccc2)C1=O,-12.2
3,S=C(NCc1ccc(Cl)cc1)Nc1ccccc1Cl,7.31
4,O=C(COC(=O)c1cc([N+](=O)[O-])ccc1NCCO)Nc1cccc(S(=O)(=O)N2CCCC2)c1,2.59
5,O=C(Nc1ccncc1)c1c(F)cccc1F,-3.53
6,CCn1c(CN2CCOCC2)nnc1SCC(=O)Nc1ccc(C(C)=O)cc1,3.23
7,NCc1cccc(-n2cccn2)c1.O=C(O)CC(=O)O,-8.09
8,O=C(NCc1ccccc1)c1ccccc1OCC(=O)N1CCCCC1,-5.36
9,CCOc1ccc(/C(O)=C2/C(=O)C(=O)N(CCOCCO)C2c2ccc(F)cc2)cc1 (stereo not shown),7.73
10,Cc1ccc(Cn2nnc3c(=O)[nH]c(C4CCCN(C(=O)c5ccco5)C4)nc32)cc1 (stereo not shown),-16.1
11,O=C(COC(=O)COc1ccc(Cl)cc1)NCc1cccs1,7.36
12,COc1ccc(Cn2cccc(NC(=O)Nc3cccc(C#N)c3)c2=O)cc1,22.8
13,NC(=O)CC(CC(=O)OCc1ccccc1)c1ccccc1 (stereo not shown),10.8
14,CCCNC(=O)C12CCC(C)(c3nc4cc(C)c(C)cc4nc31)C2(C)C (stereo not shown),-5.58
15,COc1ccc(OCC(O)CN2CCCCC2)cc1.Cl (stereo not shown),8.1
16,CC(C)CCOc1ccc(Cl)cc1CN1CCOCC1.Cl,-2.16
17,CCOC(=O)c1cc(CC)sc1NC(=O)c1ccc(N2C(=O)CCC2=O)cc1,9.59
18,CCOc1ccc(S(=O)(=O)N2CCCC(C(=O)NCC3CCCO3)C2)cc1 (stereo not shown),-19.5
19,Cc1ccccc1S(=O)(=O)Oc1cccc2c(O)cccc12,18
20,O=C1CC(c2c[nH]c3ccccc23)C(=O)N1c1ccccc1 (stereo not shown),-2.29
21,CCC(=O)N(CCc1ccccc1)Cc1cc2ccc(OC)cc2[nH]c1=O,-31.3
22,Br.COc1ccc(C(=O)CN2CCCCC2)cc1,7.07

row,Structure (SMILES),"hERG current change (%, negative = inhibition) at 10uM [%]"
1,CN(c1ccccc1)S(=O)(=O)c1ccc(C(=O)NCc2ccccc2F)cc1,-4.24
2,O=C(Nc1ccc(Cl)cc1)c1cccnc1N1CCCCC1,-13.3
3,CCCN(CC1CC1)C(=O)CCc1nnc(CCc2c[nH]c3ccccc23)o1,-6.77
4,COc1ccc(C(=O)Nc2ccccc2N2CCOCC2)cc1[N+](=O)[O-],-10.5
5,COc1cc(OC)cc(-c2c(-c3cccs3)c3cc(Br)ccc3n2C)c1,18.6
6,CCOc1ccc(NC(=O)NC2CCS(=O)(=O)C2)cc1 (stereo not shown),-29.4
7,Cc1ccc(S(=O)(=O)N2CCCCC2c2cccnc2)c(C)c1C (stereo not shown),-30.1
8,O=C(NC1CCN(C(=O)Nc2cccc(Cl)c2)CC1)c1ccccc1,1.02
9,CCc1ccc(-c2csc(NC(=O)C3CC(=O)N(c4ccc5c(c4)OCCO5)C3)n2)cc1 (stereo not shown),11.4
10,Cc1nc(C)c(-c2csc(Nc3ccc(S(N)(=O)=O)cc3)n2)s1,19.9
11,CC(C(=O)OCC(=O)c1ccc(Br)cc1)N1C(=O)C2C3C=CC(C3)C2C1=O (stereo not shown),1.25
12,CC1CCN(C2=NC(=O)/C(=C/c3cn[nH]c3-c3ccccc3)S2)CC1,-7.85
13,CCCCCC(=O)Nc1nnn(CCC)n1,4.41
14,CC(=O)c1cccc(NC(=O)CN2CCc3cc4c(cc3C2)OCCCO4)c1,-18.8
15,Cc1[nH]c2ccccc2c1/C=N/NC(=O)c1cccc(S(=O)(=O)Nc2ccccc2Cl)c1,18.6
16,Cc1ccc(C)c2c1sc(=NC(=O)CN1C(=O)CCC1=O)n2C,-13.6
17,CC(C)(C)c1ccc(C(=O)NC(=S)NNC(=O)c2cccs2)cc1,33
18,COc1ccc(-c2cc(-c3ccccc3)nc(N3CCCC3)n2)cc1OC,-7.76
19,C=CCNC(=O)C(=O)NCCOc1ccccc1Cl,5.25
20,COc1ccc(/C=C(\NC(=O)c2ccccc2)C(=O)N2CCN(C)CC2)cc1OC,20
21,COC(=O)c1cc(=O)n(-c2ccc(F)cc2)c(=Nc2ccc(F)cc2)s1,8.23
22,O=C(CN1CCOCC1)Nc1ccc(Oc2ccccc2)cc1,-9.26
